Test results from the supplement of paper PMC3334620.
Whole data set: some 33,000 sequences, median “E-score (-0.5 to 0.5)” near -0.017, cut for the highest 2% near 0.3. This is one part of the list.

Biological target: T1, Sut1 (UniProt P53032)
T1 sequence: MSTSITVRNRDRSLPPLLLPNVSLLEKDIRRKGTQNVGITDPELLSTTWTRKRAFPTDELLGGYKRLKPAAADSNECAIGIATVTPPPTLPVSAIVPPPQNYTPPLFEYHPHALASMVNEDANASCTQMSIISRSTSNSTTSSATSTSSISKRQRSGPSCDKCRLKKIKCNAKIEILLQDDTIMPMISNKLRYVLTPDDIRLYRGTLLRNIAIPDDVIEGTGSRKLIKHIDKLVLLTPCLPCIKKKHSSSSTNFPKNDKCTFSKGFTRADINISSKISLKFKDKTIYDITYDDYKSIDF
Assay: PBM E-score (8-mer binding enrichment) (E-score (-0.5 to 0.5)); higher = stronger / more preferred TF binding; most listed sequences are background and not binding sites
Conditions: protein concentration: 200 nM; construct: GST-full length
Procedure, shortened: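 Universal all-10-mer Agilent arrays, double-stranded by primer extension on fresh or once-stripped slides, were probed with about 100-200 nM GST-tagged yeast transcription factors made by PURExpress. Fluorescent anti-GST detected bound protein, and masliner normalised the scans. E-scores from the Universal PBM Analysis Suite were given to each ungapped eight-base word pooled with its reverse complement.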

Sequence	PBM E-score
AGGTATAC	-0.0604
ACCGGGCC	-0.053
ACCGACAC	0.0514
GCTTTGAC	0.0882
AGGCCTCG	-0.194
AATATTCG	0.0876
AGATGACT	-0.13
GCAAACGC	-0.175
CCCTACCC	-0.251
GACGTGCA	-0.095
TGGGAAAA	-0.0944
CAATGCGC	-0.074
TCTCAGAA	-0.12
AATATTGA	0.122
AAGCATTA	0.0192
CTACGGGC	-0.206
TCAAGTGA	0.0149
ACTTCGCA	-0.132
ACACCGTA	-0.0843
CAGGTAGC	-0.194
CCTCATCC	-0.193
CTGGGGAA	-0.255
AGAACCTC	-0.0985
TAATTGTA	0.205
CCGTAGCG	-0.0307

Sequence	PBM E-score
ATCATCAC	-0.0468
GTTACATA	0.126
ACTTTGTG	0.0897
ACGCGGGA	0.0369
GCCTGCAC	-0.178
CGCCACGA	-0.0774
ACCAAATA	0.117
CTCTCATA	0.0812
GTTCGGTA	0.141
TGGCCGAA	0.106
AACGGATG	0.0106
CGTCTACA	-0.181
CATGACAC	0.135
CGATGCTA	0.0352
CAGGGTGA	-0.156
CGTGCGCA	-0.0836
CCCTAAGC	-0.245
CCAACATA	0.226
CAAGTCTG	-0.217
AGTCGCTC	-0.0692
ATCTGAAC	0.0467
ACTTCTGG	-0.16
CAGCATTC	-0.193
TAACTTGA	0.161
CGTCTTCC	-0.0771

Sequence	PBM E-score
GCCATCAA	-0.16
CCTACGCA	-0.132
AGCCTACT	-0.134
ATCGTCCC	0.00149
AAGCGTCG	-0.0688
GTTGCCGA	0.0843
GACCGAGA	0.229
AACCTCGC	-0.147
CCCTCCAG	-0.281
CGTGCCAG	-0.145
AAGGTGAT	0.0343
AGGCAGCA	-0.169
CCTTAGAC	-0.132
ACCACAAA	0.148
CCGACGAC	0.12
AATATAAT	0.193
CTCCATTA	0.0218
CTGCTGGA	-0.292
CCATGACA	-0.152
CAGTATCG	0.00749
ACAAGCCA	-0.0804
ACCTATTA	0.114
ATAAACTC	0.315
CGGCAAGC	-0.0429
CCGCACAG	-0.0894

Sequence	PBM E-score
ATTCATAA	0.127
AGGCAATG	-0.0382
CTCGTGCC	-0.209
CCCTGGCG	-0.282
ATATCCTC	0.0549
CTATATCC	0.0772
GACCTTAA	-0.0227
AGGGTGAC	-0.177
CAACTTGG	-0.0845
AGGGTGAG	-0.191
AGAGTACT	-0.0898
CGACATTC	-0.0101
AACTGAAT	-0.184
GCCTCCCC	-0.329
CTCGTCGA	-0.0555
GCAGACGC	-0.0272
AAGGGGTC	-0.325
GAGGTACA	-0.174
CTATTCGC	-0.124
GTAATCAA	0.0731
AACTATCT	0.0634
CCCCCTGC	-0.335
AGTCCTGC	-0.19
CTGAGCAC	-0.148
AGTTTAGA	0.267

Sequence	PBM E-score
ACAGATCC	0.197
ACAAGTCG	-0.264
CCTATAAG	-0.0978
AGGTGGAA	0.0437
AAACACGT	0.116
AATCAATT	0.259
AGCTAGCG	-0.184
ATACGTCC	0.0728
AGGCACTA	-0.174
AGGATACC	-0.0483
CTCGGCAA	0.0287
ACCGAAGA	0.222
CAAGCAAC	-0.124
AATTCTAG	0.131
ATTGGCTA	0.0446
GTAACGTA	0.0551
CTTTATCC	0.00753
GTGACCAA	0.0651
CTCTGGCC	-0.251
ATGATACG	0.227
AGATTTCG	0.219
AGAGTTGA	0.0231
CATTTCTA	0.228
GAACCCAC	0.0354
ACCGGCCG	0.135

Sequence	PBM E-score
TGTACCAA	-0.0282
GAAGTCCC	-0.219
GACGGGAA	-0.132
TCACAGCA	0.0299
GAATTAGC	0.0359
TGCGCAAA	0.0678
AACACACA	-0.00438
AAAGTAAT	0.204
AGAAGTAC	-0.186
GAGATCAC	-0.0626
GCGGTACC	-0.0706
GTCGTGAA	-0.257
TGCCAGCA	-0.128
CAAGGTTA	0.00016
CAGACCAA	0.0753
ACCTCCGC	-0.104
CAAGCACA	-0.196
AATAATTG	0.18
CTTGTTCA	0.032
ACAGTGGG	-0.195
AAAGTATA	0.214
CCGTACGG	-0.00184
ATAACGAA	0.191
AACGGCGG	-0.0398
CAACAGGG	-0.117

Sequence	PBM E-score
AGCGACCG	-0.0654
ACAGAGTG	-0.124
AGAATAAA	0.274
AGGGACAT	-0.134
GACGGCTA	0.0151
GTGCCTAA	-0.161
AATGATAT	0.261
TAAGAATA	-0.086
ATGCGTCG	-0.0134
CATGCCCG	0.0529
GCAAAATA	0.254
GCAATAGC	0.0227
CTTCTTCA	-0.102
GGTCGACC	0.0475
ATCAGTAA	0.125
CGCAATGA	-0.0747
CATCATAA	0.166
CCGTGGTA	-0.156
CCAGAAAA	0.137
CTAATGAC	-0.1
AACGGCCC	-0.142
CAGTAAAA	0.177
